Reference: PubChem BioAssay AID1347073 (National Center for Advancing Translational Sciences (NCATS), 2019)
The campaign covered roughly 45,000 compounds. About 200 (0.44%) were called active. Inconclusive results (about 7%) are left out. Calls follow the shape of the dose curve; as a rule, active = well fitted activation curve with a large enough effect; inconclusive = small, poorly fitted or top-dose-only effect; inactive = no such curve, though single readings can be large or run the other way. Some of the results follow.

Assay: qHTS of TDP-43 Inhibitors: NCGC Sytravon Library Screen; also: nearly all actives have a fitted effect of over 55% in size; as to growth rescue (activation): 0% is about no effect
Conditions: yeast TDP-43 toxicity rescue, BacTiter-Glo growth, 24 h; series mostly up to 46.1 µM; growth rescue (activation): at the top concentration
Method in brief: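 TDP-43-expressing yeast, pregrown in raffinose, seeded at OD600 0.02 in galactose medium with compound for 24 hr at 30 deg C. Growth read by BacTiter-Glo luminescence, so rescue of toxicity appears as activation.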
Potency is read from the fitted curve at half-maximal effect.

Row | SMILES | growth rescue (activation) | Potency
1 | NC(CCc1ccccc1)c1csc(Nc2cnccn2)n1 (stereo unspecified) | inactive: 7.79% | –
2 | Cc1ccc2c(c1)C1CN(C)CCC1N2C(=O)c1ccccc1NS(=O)(=O)c1cccc(C(F)(F)F)c1 (stereo unspecified) | inactive: -21.2% | –
3 | CCc1ccccc1NC(=S)N(Cc1ccc(OC)cc1)CC1CCC(C(=O)O)CC1 (stereo unspecified) | inactive: -4.22% | –
4 | COc1cc(OC)cc(C(=O)NCC(=O)OCC(=O)N2CCc3ccccc32)c1 | inactive: -0.0791% | –
5 | COc1ccccc1N1CCN(C(=O)CN2C(=O)C3CCCCC3C2=O)CC1 (stereo unspecified) | inactive: -7.15% | –
6 | CNC(=O)c1cc(C(=O)c2ccccc2C(F)(F)F)c[nH]1 | inactive: 12.3% | –
7 | Cc1nccc(-c2ccc(-n3c(C)ccc3C)cc2)n1 | inactive: 23.4% | –
8 | CCOC(=O)N1CCN(S(=O)(=O)N2CCCC(C(=O)NCc3ccc(OC)cc3)C2)CC1 (stereo unspecified) | inactive: 6.8% | –
9 | O=C(Nc1cccc(F)c1)C1CCCN(S(=O)(=O)c2ccc(-n3cnnn3)cc2)C1 (stereo unspecified) | inactive: 5% | –
10 | COc1ccccc1NC(=O)CSC1=NC(=O)C(Cc2ccccc2)C(=O)N1 (stereo unspecified) | inactive: 3.86% | –
11 | Cc1ccc(/C=C/C(=O)OC(C)C(=O)Nc2ncc(Cl)cc2Cl)o1 (stereo unspecified) | inactive: -3.97% | –
12 | COc1ccc2c(c1)c(CC(=O)Nc1cc(C)ccc1C)c(C)n2C(=O)c1ccc(Cl)cc1 | inactive: 5.42% | –
13 | Cc1cccc(OCC(=O)NN2C(=O)C3C4C=CC(O4)C3C2=O)c1 (stereo unspecified) | inactive: 10.9% | –
14 | C/C(=N\NC(=S)NC1CCCCC1)c1cccc(Br)c1 | inactive: -6.1% | –
15 | Cc1onc(-c2c(F)cccc2Cl)c1C(=O)Nc1cccc(S(=O)(=O)N2CCOCC2)c1 | inactive: 2.7% | –
16 | NC(=O)c1c(NC(=O)C2CCCO2)sc2c1CCCCC2 (stereo unspecified) | inactive: 14.1% | –
17 | C=CCn1c(SCC(=O)Nc2ccc(F)cc2)nc2cc(C(=O)O)ccc2c1=O | inactive: 3.92% | –
18 | CC(C)c1ccc(NC(=O)N2CCN(c3ccc(Cl)c(Cl)c3)CC2)cc1 | inactive: 13.7% | –
19 | O=C(C1=C(O)C(=O)N(CC2CCCO2)C1c1ccccc1[N+](=O)[O-])c1ccco1 (stereo unspecified) | inactive: -1.31% | –
20 | COc1ccc(S(=O)(=O)c2ccc(OCC3CO3)cc2)cc1 (stereo unspecified) | inactive: 16.4% | –
21 | CCC(COC(=O)Nc1ccccc1)NC(=O)OC(C)C (stereo unspecified) | inactive: -14% | –
22 | Cc1c(NS(=O)(=O)c2cccc(C(=O)N3CCC(C(N)=O)CC3)c2)c(=O)n(-c2ccccc2)n1C | inactive: -7.08% | –

Row | SMILES | growth rescue (activation) | Potency
23 | CCOC(=O)N=Nc1c(O)n(CC)c2ccccc12 | inactive: 19.6% | –
24 | Cc1ccc(CN2CCN(Cc3cn[nH]c3-c3ccccc3)CC2CCO)o1 (stereo unspecified) | inactive: -0.374% | –
25 | CCOC(=O)c1c(C)[nH]c(C(=O)COC(=O)/C=C/c2ccc(O)c(OC)c2)c1C | inactive: 6.37% | –
26 | Nc1nnc(SCC(=O)NNC(=O)c2ccccc2F)s1 | inactive: -5.76% | –
27 | Cn1c(C(=O)O)c(CC(=O)Nc2ccccc2F)c2ccccc21 | inactive: 7.39% | –
28 | CC1(C(=O)NS(=O)(=O)c2cccc(F)c2)CCN1C(=O)Cc1cccs1 (stereo unspecified) | inactive: -5.77% | –
29 | CN(C(=O)COC(=O)/C=C/c1cccc([N+](=O)[O-])c1)C1CCS(=O)(=O)C1 (stereo unspecified) | inactive: 9.6% | –
30 | CC(NC(=O)CN1C(=O)NC2(CCCC2)C1=O)c1ccc(Cl)cc1Cl (stereo unspecified) | inactive: 9.79% | –
31 | COCCN(C(=O)CSc1nnc(C)n1-c1ccccc1)c1c(N)n(Cc2ccccc2)c(=O)[nH]c1=O | inactive: 18.6% | –
32 | O=C(Nc1ccc(C(=O)N2CCOCC2)cc1)Nc1cccc2ccccc12 | inactive: -9.82% | –
33 | CCOC(=O)c1c2ccc(OCC(=O)N/N=C/c3ccc(C)cc3)cc2n2ccccc12 | inactive: 10.4% | –
34 | O=C(Cc1ccccc1)N1CCN(S(=O)(=O)c2ccc([N+](=O)[O-])cc2)CC1 | inactive: 2.44% | –
35 | O=C(CCC(=O)N/N=C/c1ccc(Br)o1)N/N=C/c1ccc(Br)o1 | inactive: 1.02% | –
36 | O=C(Nc1ccccc1)Nc1cccc2ccccc12 | inactive: 11.6% | –
37 | CC1=NN(c2ccccc2)C(=O)C1N=Nc1cccc(O)c1 (stereo unspecified) | inactive: 0.702% | –
38 | Cc1nnc(NC(=O)c2cc3ccccc3o2)s1 | inactive: 14% | –
39 | CN(C)CCCN(Cc1cc2cc3c(cc2[nH]c1=O)OCO3)C(=S)NCc1ccco1 | inactive: 3.99% | –
40 | Cc1ccc(S(=O)(=O)N2CCCC2C(=O)Nc2ccc(Br)cc2)cc1 (stereo unspecified) | – | active: 12.6 µM
41 | COc1cc(CN2CCNC(=O)C2CC(=O)N2CCCO2)cc(OC)c1 (stereo unspecified) | inactive: -18.4% | –
42 | O=C(O)/C(=C\c1cccs1)Sc1nnc(-c2ccc(F)cc2)o1 | inactive: 11.2% | –
43 | COc1c(C)cc(C(=O)C2CCCN(C(=O)Cn3ccc(C)n3)C2)cc1C (stereo unspecified) | inactive: 11.4% | –
44 | O=C(O)c1cccc(NS(=O)(=O)c2ccc3c(c2)OCCCO3)c1 | inactive: 7.47% | –

Row | SMILES | growth rescue (activation) | Potency
45 | O=C(O)c1cccc(-c2csc(C(O)c3ccc(F)cc3)n2)c1 (stereo unspecified) | inactive: 12.9% | –
46 | C=CCOc1c(Br)cc(CNn2cn[nH]c2=S)cc1OC | inactive: 17.9% | –
47 | CC(=O)C1=C(O)CC(C)(C)CC1=NCc1nc2ccccc2[nH]1 | inactive: 8.75% | –
48 | CCNC(=O)NC(=O)C(C)OC(=O)C1CCN(S(=O)(=O)c2ccccc2F)CC1 (stereo unspecified) | inactive: 0.406% | –
49 | O=C(C(O)c1ccccc1)N1N=C(c2ccccc2)CC1(O)C(F)(F)F (stereo unspecified) | inactive: -5.44% | –
50 | N#Cc1nc(-c2ccco2)oc1NCCc1ccccc1 | inactive: -15.5% | –
51 | CCOc1ccc(-n2c(C)cc(C(=O)NS(=O)(=O)c3ccc(C)cc3)c2C)cc1 | inactive: -12.8% | –
52 | Cc1[nH]nc2c1C(c1ccsc1)C1=C(CC(C)(C)CC1=O)N2 (stereo unspecified) | inactive: -20.1% | –
53 | Cc1sc2ncn(CC(=O)NCC(=O)N3CCN(c4ccc(F)cc4)CC3)c(=O)c2c1C | inactive: 12.8% | –
54 | COc1ccccc1NS(=O)(=O)c1ccc(C)c(C(=O)NC2CCN(Cc3ccccc3)CC2)c1 | inactive: 0.345% | –
55 | Cc1nc2scc(-c3ccc(C(C)(C)C)cc3)c2c(=O)n1N | inactive: 22.6% | –
56 | CN1C(=O)C(CC(=O)Nc2ccc(Cl)cc2)N(Cc2ccco2)C1=S (stereo unspecified) | inactive: 18.1% | –
57 | CC[n+]1c(/C=C2\C=C(C)CC(C)C2)sc2ccccc21 (stereo unspecified) | inactive: 12.7% | –
58 | CC(C)c1ccc(C(=O)Nc2cccnc2)cc1 | inactive: 20.3% | –
59 | Cc1cc(C)n2c(Br)c(CN3CCCC(C)C3)nc2n1 (stereo unspecified) | inactive: 4.42% | –
60 | O=S(=O)(c1ccc(NCCCO)nc1)N1CCOCC1 | inactive: 15.5% | –
61 | CC1CC(C)(C)CC2(C1)NC(=O)N(CC(=O)N(C)Cc1nc3ccccc3c(=O)[nH]1)C2=O (stereo unspecified) | inactive: 1.91% | –
62 | O=C(O)c1ccc2c(c1)C(=O)N(c1ncccn1)C2=O | inactive: 1.15% | –
63 | Cc1ccccc1-c1nc(-c2ccccn2)no1 | inactive: -39.8% | –
64 | S=C(Nc1ccccc1)N1CCN(Cc2ccccc2)CC1 | inactive: -9.05% | –
65 | COc1ccc(CNc2nc(-c3cccnc3)nn2C(=O)C(C)C)cc1 | inactive: 6.54% | –
66 | COc1ccc(NC(=O)NNC(=O)c2ccccc2-n2cccc2)cc1OC | inactive: 19% | –

Row | SMILES | growth rescue (activation) | Potency
67 | CC#CC(=O)N1CCC(Oc2cccc(C(=O)NCc3ccccn3)c2)CC1 | inactive: 8.95% | –
68 | CCCN1C(=O)COc2ccc(C(=O)c3ccccc3C(=O)O)cc21 | inactive: 7.13% | –
69 | CCNC(=S)NNc1nc(N2CCOCC2)nc(N2CCOCC2)n1 | inactive: -18% | –
70 | Cc1cc(C)cc(OCc2nnc(N)s2)c1 | inactive: -7.07% | –
71 | Cc1ccc(NC(=O)C2C3C=CC(O3)C2C(=O)O)cc1C (stereo unspecified) | inactive: 5.55% | –
72 | N#C/C(=C\c1ccc(F)cc1)c1nc(-c2ccco2)cs1 | inactive: 15.1% | –
73 | Cc1ccc(C)c(S(=O)(=O)N2CCN(C(=O)[C@H](Cc3ccccc3)NC(=O)c3ccco3)CC2)c1 | inactive: -2.87% | –
74 | Cc1cc(C)cc(Cn2c3ccc(NC(=O)NCc4ccc(F)cc4)cc3c(=O)n2C)c1 | inactive: 17.5% | –
75 | CC(NC(=O)C1CCN(C(=O)c2ccc(F)cc2)CC1)c1ccc(S(N)(=O)=O)cc1 (stereo unspecified) | inactive: 5.53% | –
76 | CCOc1cc(NC(=S)NCCCN2CCOCC2)c(OCC)cc1NC(=O)C(C)C | inactive: -14.8% | –
77 | Oc1cccc(C(O)CNCc2ccc(-c3ccccc3)cc2)c1 (stereo unspecified) | inactive: -0.88% | –
78 | COc1ccc(NC(=O)CN2CCC(C(=O)c3ccc(F)cc3)CC2)c(OC)c1 | inactive: 17.6% | –
79 | Cc1onc(-c2ccccc2Cl)c1C(=O)N1CCOC12CCCCC2 | inactive: 17.8% | –
80 | Cc1cc(C)c2cc(C#N)c(N3CCCN(C(=S)NCCCN(C)C)CC3)nc2c1 | inactive: 3.5% | –
81 | Cc1nc2scc(-c3ccccc3)c2c(=O)n1/N=C/c1ccco1 | inactive: 3.54% | –
82 | O=C(CNC(=O)c1ccc(Cl)cc1)N/N=C/c1cccnc1 | inactive: 3.46% | –
83 | CN1CCN(c2ccc(S(=O)(=O)N3CCCCC3)cn2)CC1 | inactive: 0.726% | –
84 | CN(c1ccccc1)S(=O)(=O)c1cccc(NC(=O)CSc2n[nH]c(N)n2)c1 | inactive: 36.1% | –
85 | CCn1c(CNC(=O)c2ccco2)nnc1SCCOc1ccccc1 | inactive: 4.66% | –
86 | O=C(CC1NC(=S)NC1=O)c1ccc(Cl)cc1 (stereo unspecified) | inactive: -4.63% | –
87 | CCOC(=O)C1(CC2CCCCO2)CCN(Cc2c(C)cc(C)cc2-n2cccn2)CC1 (stereo unspecified) | inactive: -6.79% | –
88 | CCCCNC(=O)C1(C)CCCCN1C(=O)c1c(F)ccc(C)c1F (stereo unspecified) | inactive: 17.3% | –

Row | SMILES | growth rescue (activation) | Potency
89 | COC(=O)c1c(-c2ccc(C)cc2)csc1NC(=S)NC(=O)c1ccc(F)cc1 | inactive: -0.671% | –
90 | COc1ccc(C(NC(=O)c2ccc(=O)[nH]c2)C(=O)Nc2ccc(C(C)C)cc2)cc1 (stereo unspecified) | inactive: 5.51% | –
91 | CN(Cc1nc2ccccc2c(=O)[nH]1)C(=O)c1cc2c(s1)CCCCC2 | inactive: -4.57% | –
92 | Cc1ccc(OCCC(=O)NCCc2ccc(S(N)(=O)=O)cc2)cc1 | inactive: -6.36% | –
93 | Cc1ccccc1NC(=O)NC1(C(=O)N2CCN(C)CC2)CCCCC1 | inactive: 3% | –
94 | Cc1nc(Cl)c(C(=O)NCc2ccccc2)c(C)c1[N+](=O)[O-] | inactive: -8.24% | –
95 | COc1ccc(C(=O)Nc2ccc(S(=O)(=O)Nc3ncccn3)cc2)cc1OC | inactive: 4.07% | –
96 | CCn1c(SCC(=O)NCCc2ccccc2)nnc1-c1ccco1 | inactive: 4.55% | –
97 | COCc1cc(C)nc2sc(C(=O)Nc3ccccc3Br)c(N)c12 | inactive: 12.2% | –
98 | O=c1cc(/C=C/c2c(F)cccc2Cl)[nH]c2ccccc12 | inactive: -5.73% | –
99 | COc1ccc(CC(=O)OCC(=O)Nc2ccc(F)cc2)cc1 | inactive: 13.9% | –
100 | COc1cccc(C(O)c2nc(-c3cnn(C)c3)cs2)c1 (stereo unspecified) | inactive: 15.7% | –
101 | O=C(Nc1ccc(OC(F)F)c(Cl)c1)c1ccccn1 | inactive: -0.422% | –
102 | CCS(=O)(=O)N1CCC(NC(=O)C(Cc2cc(OC)ccc2OC)NC(C)=O)CC1 (stereo unspecified) | inactive: 2.19% | –
103 | Nc1c(Cl)ncnc1N/N=C/c1ccccn1 | inactive: -70.4% | –
104 | CN(C)S(=O)(=O)c1cccc(NC(=O)c2ccc(COc3ccccc3)cc2)c1 | inactive: 3.91% | –
105 | COc1ccc(CCCC(=O)N/N=C\c2cccs2)cc1 | inactive: 12.7% | –
106 | COc1ccc(NC(=O)/C=C/c2cc(Br)ccc2OC)cc1 | inactive: -32.1% | –
